The campaign covered roughly 310,000 compounds. About 2,200 (0.71%) showed an effect of 50% or more. Effects have a minus sign here. Some of the results follow.
The molecules below were run against human ether-à-go-go-related gene (hERG) potassium channel (human, UniProt Q12809) (assay: primary screen, population patch clamp on CHO cells stably expressing hERG).
human ether-à-go-go-related gene (hERG) potassium channel, sequence (Q12809 whole entry, looked up): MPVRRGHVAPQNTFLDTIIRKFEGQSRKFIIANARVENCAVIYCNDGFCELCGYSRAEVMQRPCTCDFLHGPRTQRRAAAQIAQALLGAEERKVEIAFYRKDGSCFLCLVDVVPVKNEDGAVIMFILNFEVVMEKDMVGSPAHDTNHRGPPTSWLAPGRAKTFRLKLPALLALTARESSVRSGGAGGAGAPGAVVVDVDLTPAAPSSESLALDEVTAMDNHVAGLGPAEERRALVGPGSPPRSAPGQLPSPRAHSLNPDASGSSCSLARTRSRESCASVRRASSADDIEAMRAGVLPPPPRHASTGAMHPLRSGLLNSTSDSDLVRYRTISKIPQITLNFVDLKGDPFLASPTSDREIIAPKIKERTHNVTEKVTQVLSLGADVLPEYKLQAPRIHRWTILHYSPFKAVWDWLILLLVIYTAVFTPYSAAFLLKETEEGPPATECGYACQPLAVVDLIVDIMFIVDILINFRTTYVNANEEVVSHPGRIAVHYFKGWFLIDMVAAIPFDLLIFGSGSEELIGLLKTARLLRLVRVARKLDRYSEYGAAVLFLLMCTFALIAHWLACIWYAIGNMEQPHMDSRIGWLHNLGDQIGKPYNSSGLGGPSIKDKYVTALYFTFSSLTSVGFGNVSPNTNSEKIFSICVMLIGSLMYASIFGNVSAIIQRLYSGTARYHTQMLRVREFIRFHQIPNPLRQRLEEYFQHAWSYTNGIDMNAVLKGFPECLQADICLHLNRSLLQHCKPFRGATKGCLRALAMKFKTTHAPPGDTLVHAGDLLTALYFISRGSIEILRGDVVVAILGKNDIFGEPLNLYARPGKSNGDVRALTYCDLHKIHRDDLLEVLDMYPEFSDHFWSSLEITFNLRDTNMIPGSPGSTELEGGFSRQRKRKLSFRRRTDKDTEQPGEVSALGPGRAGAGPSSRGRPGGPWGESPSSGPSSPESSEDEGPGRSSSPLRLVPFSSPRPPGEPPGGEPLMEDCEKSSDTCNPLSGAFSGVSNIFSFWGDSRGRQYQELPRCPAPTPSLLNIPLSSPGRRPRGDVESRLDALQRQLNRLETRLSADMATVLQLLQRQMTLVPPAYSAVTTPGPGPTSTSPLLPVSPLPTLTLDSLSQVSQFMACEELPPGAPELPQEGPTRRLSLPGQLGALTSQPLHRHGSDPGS

Compared with CN(C)c1ccc(/C=C/c2ccc3ccccc3[n+]2C)cc1.[I-], CCn1c(/C=C\c2ccccc2C)nc2ccccc2c1=O is higher in “hERG current change (%, negative = inhibition) at 1uM” value: -22.5% for the first, -1.58% for the second.

Compared with O=[N+]([O-])c1ccc(/C=N/N2CCN(Cc3ccccc3)CC2)cc1, O=[N+]([O-])c1ccccc1/C=N\N1CCN(Cc2ccccc2Cl)CC1 is higher in “hERG current change (%, negative = inhibition) at 1uM” value: -2.82% for the first, 14.5% for the second.

First: Cc1nc(-c2ccc(NC(=O)c3ccccc3)cc2)cs1
Second: O=C(Nc1ccc(-c2cn3c(n2)SCC3)cc1)c1ccc2ccccc2n1
The “hERG current change (%, negative = inhibition) at 1uM” value of the first is lower: 4.13% for the first, 11.7% for the second.

Compared with Cc1cc(/C([O-])=C(/C(=S)Nc2ccc(F)cc2)[n+]2ccccc2)c(C)n1-c1ccc(F)cc1, Cc1c(C(c2ccc(F)cc2)c2c(C)n(C)n(-c3ccccc3)c2=O)c(=O)n(-c2ccccc2)n1C is higher in “hERG current change (%, negative = inhibition) at 1uM” value: -1.77% for the first, 18.4% for the second.

Going from CCCC(=O)Nc1ccc2nc(SCC(=O)Nc3ccc(N4CCOCC4)c(Cl)c3)sc2c1 to O=C(COc1ccc2c(c1)oc(=O)c1ccccc12)NCCCN1CCOCC1, the “hERG current change (%, negative = inhibition) at 1uM” value falls from 0.66% to 0.293%.

Going from CCN(C(=O)N1CCOCC1)c1ccccc1 to CCn1c(SCC(=O)N2CCN(c3ccccc3)CC2)nnc1-c1ccoc1C, the “hERG current change (%, negative = inhibition) at 1uM” value falls from 14.6% to -13.8%.

Going from O=C(O)c1ccc2c(c1)OCCO2 to C(=NCCCN1CCOCC1)c1ccc2c(c1)OCO2, the “hERG current change (%, negative = inhibition) at 1uM” value rises from 6.23% to 16.1%.

Going from OCCSc1nc(N2CCOCC2)nc(N2CCOCC2)n1 to c1cc(N2CCCC2)ccc1C(c1nnnn1C1CCCCC1)N1CCOCC1 (centres unmarked), the “hERG current change (%, negative = inhibition) at 1uM” value rises from 13.7% to 16.6%.

First: CCCc1nn(C)c2c1C(c1ccncc1)C(C#N)=C(N)O2 (centres unmarked)
Second: Cc1ccc(C2C(C#N)=C(N)N(N(C)C)C3=C2C(=O)CCC3)cc1 (centres unmarked)
The “hERG current change (%, negative = inhibition) at 1uM” value of the first is higher: 26.3% for the first, -11.3% for the second.

Going from CC1CCCC(C)N1/N=C/C=C/c1ccccc1[N+](=O)[O-] (centres unmarked) to CCC(=O)N1CCN(c2ccc(OC)cc2[N+](=O)[O-])CC1, the “hERG current change (%, negative = inhibition) at 1uM” value falls from 14.6% to -0.687%.

Compared with NS(=O)(=O)c1ccc(CCNC(=O)Nc2ccc(Cl)c(Cl)c2)cc1, CN(CC(=O)NCCc1ccc(S(N)(=O)=O)cc1)c1ccccc1 is higher in “hERG current change (%, negative = inhibition) at 1uM” value: 6.75% for the first, 13% for the second.

First: CCCn1c(CN2CCN(C(C)=O)CC2)nc2cc(S(=O)(=O)N(C)C)ccc21
Second: O=C(N1CCCCC1)N1CCN(S(=O)(=O)c2cccc([N+](=O)[O-])c2)CC1
The “hERG current change (%, negative = inhibition) at 1uM” value of the first is higher: 25.5% for the first, 3.91% for the second.

Compared with Nc1cccc(N=Cc2c(O)n(Cc3ccc(F)cc3)c(=O)[nH]c2=O)c1, CC(NC(=O)Cc1ccc(F)cc1)c1ccc(F)cc1 (centres unmarked) is lower in “hERG current change (%, negative = inhibition) at 1uM” value: 13.5% for the first, 2.92% for the second.

Going from CS(=O)(=O)Nc1ccc(C(=O)Nc2cccc([N+](=O)[O-])c2)cc1 to CCCCc1ccc(NC(=O)c2ccc(N(C)S(C)(=O)=O)cc2)cc1, the “hERG current change (%, negative = inhibition) at 1uM” value rises from -5.21% to 8.33%.

First: CNC(=S)N(CCc1c(C)[nH]c2ccc(Cl)cc12)Cc1cccnc1
Second: CC(C)c1ccccc1-n1c(-c2cccnc2)n[nH]c1=S
The “hERG current change (%, negative = inhibition) at 1uM” value of the first is lower: 10.9% for the first, 14% for the second.

First: COc1ccccc1/C=C/CN1CCC(n2nccc2NC(=O)CCc2ccccc2)CC1
Second: O=C(NCCN1CCN(c2ccccc2)CC1)Nc1ccccc1Cl
The “hERG current change (%, negative = inhibition) at 1uM” value of the first is lower: -24.8% for the first, -5.21% for the second.

Compared with COc1cc(S(=O)(=O)N2CCN(c3ccc(F)cc3)CC2)ccc1Cl, O=C1CC(N2CCN(S(=O)(=O)c3ccccc3)CC2)C(=O)N1c1ccccc1 (centres unmarked) is higher in “hERG current change (%, negative = inhibition) at 1uM” value: 2.91% for the first, 10.9% for the second.

First: Cc1ccccc1Nc1c(-c2ccccc2)nc2ncccn12
Second: Cc1ccccc1Cn1c(-c2ccc(=O)[nH]c2)nc2ccccc21
The “hERG current change (%, negative = inhibition) at 1uM” value of the first is lower: 0.738% for the first, 14% for the second.

First: COc1ccc(OC)c(CCNC(=O)c2ccc3c(=O)[nH]c4c(C(=O)NC(C)C)sc(=S)n4c3c2)c1
Second: COc1cccc(/C=C2\SC(=S)N(NS(=O)(=O)c3ccc(C)cc3)C2=O)c1OC
The “hERG current change (%, negative = inhibition) at 1uM” value of the first is lower: 8.45% for the first, 11.6% for the second.

First: O=C(N/N=C/c1cccc([N+](=O)[O-])c1)C1CC(=O)N(c2ccc(Br)cc2)C1 (centres unmarked)
Second: CCc1ccc(NC(=O)CN2CC(c3ccccc3)CC2=O)cc1 (centres unmarked)
The “hERG current change (%, negative = inhibition) at 1uM” value of the first is lower: -15% for the first, -1.19% for the second.

First: COc1ccccc1C(=O)N/C(=C\c1ccc(Br)cc1)C(=O)NCCCO
Second: O=C(COc1ccc(Br)cc1)NCCCNC(=O)c1cnccn1
The “hERG current change (%, negative = inhibition) at 1uM” value of the first is lower: -0.677% for the first, 5.91% for the second.

Going from CC(=O)c1ccc(NC(=O)CCS(=O)(=O)c2ccc3c(c2)n(C)c(=O)c(=O)n3C)cc1 to CCC1Sc2ccc(S(=O)(=O)CCC(=O)Nc3ccc(C(=O)OC)cc3)cc2NC1=O (centres unmarked), the “hERG current change (%, negative = inhibition) at 1uM” value rises from 10.6% to 17.1%.

Going from CN1CCC(=NNC(=O)C(=O)NC(C)(C)C)CC1 to CCC[C@H]1CCCC/C=C\CCCC(=O)OCCN1C(=O)OC(C)(C)C, the “hERG current change (%, negative = inhibition) at 1uM” value rises from -0.402% to 11.8%.

Compared with COC(=O)C(CCCCN1C(=O)C2C3C=CC(C3)C2C1=O)N1C(=O)C2C3C=CC(C3)C2C1=O (centres unmarked), CC(C)(C)N(Cc1ccccc1)C(=O)COC(=O)CN1C(=O)NC2(CCCC2)C1=O is higher in “hERG current change (%, negative = inhibition) at 1uM” value: 11.9% for the first, 12.2% for the second.

Going from COc1ccc(CNCc2ccc3c(c2)OCO3)cc1Br.O=C(O)C(=O)O to COc1ccc(CC(=O)N/N=C(\C)c2ccccn2)cc1, the “hERG current change (%, negative = inhibition) at 1uM” value rises from -1.1% to 16.2%.

Going from COc1ccc(-n2c3c(c(=O)[nH]c2=O)C(C(F)(F)F)(C(F)(F)F)N=C(CC(C)C)N3)cc1 to CCOC(=O)CSc1nc2c(cnn2-c2ccc(F)cc2)c(=O)[nH]1, the “hERG current change (%, negative = inhibition) at 1uM” value rises from -5.44% to 11.5%.

First: O=C(c1cc2ccccc2cc1O)N1CCN(c2ccccc2O)CC1
Second: O=C(CN1C(=O)/C(=C\c2cccc(Cl)c2)Oc2ccccc21)N1CCN(c2ccccn2)CC1
The “hERG current change (%, negative = inhibition) at 1uM” value of the first is lower: -5.37% for the first, 14.6% for the second.

Going from O=C(C1CCCN(c2ncnc3c2nc2n3CCCCC2)C1)N1CCN(c2cccc(Cl)c2)CC1 (centres unmarked) to Cc1ccc(-n2nnc3c(=O)n(CC(=O)N4CCCC4)cnc32)cc1, the “hERG current change (%, negative = inhibition) at 1uM” value rises from -14.8% to -11.8%.

First: COc1ccc(C2c3c(ncn(CCN4CCOCC4)c3=N)Oc3ccc4ccccc4c32)cc1OC (centres unmarked)
Second: Cc1noc(C)c1COc1ccccc1C(=O)NC(C)c1ccc(Cl)cc1 (centres unmarked)
The “hERG current change (%, negative = inhibition) at 1uM” value of the first is higher: 2.81% for the first, -3% for the second.

Compared with CC(C)(C)c1csc(N/N=C/c2cccnc2)n1, CC(C)(C)c1cc(C(c2cccnc2)N2CCN(CCO)CC2)cc(C(C)(C)C)c1O (centres unmarked) is lower in “hERG current change (%, negative = inhibition) at 1uM” value: 5.61% for the first, -6.53% for the second.

First: O=C(COc1ccc2ccccc2c1)N/N=C/C1CC=CCC1 (centres unmarked)
Second: COC(C(=O)Nc1c(F)cccc1F)c1ccccc1 (centres unmarked)
The “hERG current change (%, negative = inhibition) at 1uM” value of the first is lower: 0.937% for the first, 7.76% for the second.

Compared with Cc1cccc(NC(=S)N2CCCCC2c2cccnc2)c1C (centres unmarked), Cc1cccnc1CCNC(=O)CC1C(=O)NCCN1CC1CCCCC1 (centres unmarked) is higher in “hERG current change (%, negative = inhibition) at 1uM” value: 8.61% for the first, 12.5% for the second.

First: CCn1ccnc1CN(C)C(=O)C1CCC(=O)N(CCc2cccc(F)c2)C1 (centres unmarked)
Second: CCC(Sc1nc(=O)cc(N)n1CCc1ccccc1)C(=O)Nc1ccccc1C#N (centres unmarked)
The “hERG current change (%, negative = inhibition) at 1uM” value of the first is lower: -0.0147% for the first, 11% for the second.

First: COc1cc(O)c2c(=O)cc(-c3ccccc3)oc2c1
Second: COC(=O)c1ccccc1NC(=O)c1ccc(-c2ccccc2F)o1
The “hERG current change (%, negative = inhibition) at 1uM” value of the first is higher: 8.69% for the first, 5.07% for the second.

Going from O=[N+]([O-])c1cccc(-c2nnc(-c3ccccc3F)o2)c1 to N=C1S/C(=C\c2ccc(-c3cccc(Cl)c3)o2)C(=O)N1c1nccs1, the “hERG current change (%, negative = inhibition) at 1uM” value rises from 13.8% to 15%.

First: Cc1cccc(C)c1NC(=O)CN(c1ccccn1)S(=O)(=O)c1ccc(F)cc1
Second: Cc1ccc(S(=O)(=O)NC2=NCN(Cc3ccccc3)CN2)cc1
The “hERG current change (%, negative = inhibition) at 1uM” value of the first is lower: -10.3% for the first, 17.6% for the second.

First: C#CCOCCOCCOCCNc1nc(N2CCN(C(=O)C([C@@H](C)CC)n3cc(C(N)COC(=O)C(F)(F)F)nn3)CC2)nc(N2CCN(C(=O)[C@H](CCC(=O)O)n3cc(C(N)CC(C)C)nn3)CC2)n1.Cl (some centres unmarked)
Second: CCCCNC(=O)CCC(=O)N1CCN(C(c2ccccc2)c2ccccc2)CC1.Cl
The “hERG current change (%, negative = inhibition) at 1uM” value of the first is higher: 17.1% for the first, 5.61% for the second.

First: COc1ccc(-c2csc3ncnc(Cl)c23)cc1
Second: COc1ccc(C(C(=O)NC(C)(C)C)N(C(=O)CCC(=O)Nc2cc(C)on2)c2ccc(C)c(C)c2)cc1 (centres unmarked)
The “hERG current change (%, negative = inhibition) at 1uM” value of the first is higher: 9.71% for the first, 8.81% for the second.

Compared with CCCCOC(=O)c1cccc(NC(=O)CCC(=O)O)c1, C/C(=N\NC(=O)c1cccc(Cl)c1)c1cccc(NC(=O)C(C)C)c1 is higher in “hERG current change (%, negative = inhibition) at 1uM” value: 3.29% for the first, 5.69% for the second.

First: COc1ccccc1CN(C)S(=O)(=O)c1cccs1
Second: COc1ccccc1NC(=S)NC(=O)C(C)(C)C
The “hERG current change (%, negative = inhibition) at 1uM” value of the first is higher: 11.6% for the first, 3.61% for the second.

First: COC(=O)c1cnn(-c2ccccc2)c1N
Second: Cc1nc2ncnn2c(C)c1CCC(=O)N1CCc2ccccc2C1
The “hERG current change (%, negative = inhibition) at 1uM” value of the first is higher: 14% for the first, -19.5% for the second.

First: CS(=O)(=O)c1ccc2nc(N)sc2c1
Second: CCN(C(=O)c1cc2ccccc2o1)C12CC3CC(CC(C3)C1)C2
The “hERG current change (%, negative = inhibition) at 1uM” value of the first is lower: 6.23% for the first, 9.26% for the second.

Going from Br.CCS(=O)CCSC(=N)N (centres unmarked) to Cc1ccc(CNC(=O)C(=O)NCC2OCCCN2S(=O)(=O)c2cccs2)cc1 (centres unmarked), the “hERG current change (%, negative = inhibition) at 1uM” value falls from 20.4% to -5.73%.

Reference: PMC4336329 (PLoS ONE, 2015)
